{
  "source": "PubChem BioAssay AID504832",
  "about": "(National Center for Advancing Translational Sciences (NCATS), 2011)",
  "note": "About 18,000 (5.8%) of roughly 310,000 compounds were called active. Inconclusive results, whose numbers are uncertain, are shown with a selection of clear calls. Calls come from the whole dose curve; as a rule, active = well fitted inhibition curve with a large enough effect; inconclusive = small, poorly fitted or top-dose-only effect, or another doubt; inactive = no such curve, though single readings can be large or run the other way. No potency is given beside an inconclusive call; the fits are too rough. Potency is the fitted concentration of half-maximal effect; tags give direction and shape of the fitted curve.",
  "data": [
    {"assay": "Primary qHTS for delayed death inhibitors of the malarial parasite plastid, 48 hour incubation", "details": "P. falciparum luciferase growth in erythrocytes; series mostly up to 28.7 µM", "how_it_was_run": "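Erythrocytes infected with P. falciparum carrying an integrated firefly luciferase reporter (2% hematocrit, 0.1% parasitemia final) were exposed to compounds in RPMI 1640 with 0.5% Albumax at 37 C, 5% CO2. Growth inhibition was scored as reduced luminescence.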", "values": [
      {"smiles": "Cc1ccc(S(=O)(=O)n2nccc2-c2c(-c3ccc(Cl)cc3)noc2C)cc1", "Potency": "active: 0.657 µM"},
      {"smiles": "CCCNC(=O)c1cc(S(=O)(=O)N2CCCCC2)ccc1N1CCOCC1", "Potency": "inconclusive [inhibitor, single point]"},
      {"smiles": "CCOC(=O)Nc1nnc(-c2ccccc2OC)s1", "Potency": "inactive"},
      {"smiles": "O=C(NCCc1cccc(C(F)(F)F)c1)C1CCC(=O)N(Cc2ccc(Cl)cc2)C1", "note": "(configuration not stated)", "Potency": "inconclusive [inhibitor, single point]"},
      {"smiles": "CC[C@H](C)[C@@H](CN[C@H](C)CNC)NCCC(c1ccccc1)c1ccccc1", "Potency": "inconclusive [inhibitor, full curve]"},
      {"smiles": "Cc1cc(C)c(-c2noc(C(=O)OC(C)(C)C)c2C(=O)OC(C)(C)C)c(C)c1", "Potency": "inconclusive [inhibitor, partial curve, poor fit]"},
      {"smiles": "CCn1cc(C(=O)N[C@@H](CCSC)C(=O)NCCOC)c(=O)c2cc3c(cc21)OCO3", "Potency": "inconclusive [inhibitor, partial curve, poor fit]"},
      {"smiles": "COc1cc(CN2C(=O)C(NC(=O)c3ccco3)(C(F)(F)F)C3=C2CC(C)(C)CC3=O)cc(OC)c1", "note": "(configuration not stated)", "Potency": "inconclusive [inhibitor, partial curve, poor fit]"},
      {"smiles": "CSc1nnnn1-c1cccc(O)c1", "Potency": "inactive"},
      {"smiles": "Cc1ccc(S(=O)(=O)N/N=C(\\c2ccccc2)C2CC2)cc1", "Potency": "inconclusive [inhibitor, single point]"},
      {"smiles": "O=C1COc2ccc(S(=O)(=O)Nc3cccc(Cl)c3)cc2N1", "Potency": "inactive"},
      {"smiles": "CC1CCN(Cc2c(C(=O)N/N=C/c3ccc(C(C)(C)C)cc3)nnn2-c2nonc2N)CC1", "Potency": "inconclusive [inhibitor, partial curve]"},
      {"smiles": "COc1cccc2[nH]c3c(N4CCCCC4)ncnc3c12", "Potency": "inconclusive [inhibitor, partial curve]"},
      {"smiles": "CC(C)(C)c1ccc(CSc2nnc(-c3ccccc3NC(=O)c3ccccc3)o2)cc1", "Potency": "inconclusive [inhibitor, single point]"},
      {"smiles": "N#CCc1c(C#N)c(N)nc(N2CCN(c3ccc(F)cc3)CC2)c1C#N", "Potency": "active: 9.28 µM"},
      {"smiles": "Cn1ccc(NC(=O)Nc2cccc([N+](=O)[O-])c2)n1", "Potency": "inconclusive [inhibitor, full curve, poor fit]"},
      {"smiles": "C/C(CCN1CCc2nc(-c3ccccc3)c(-c3ccccc3)cc2C1)=N\\O[C@@H](C)c1cc(-c2c(C)cc(C)cc2C)no1", "Potency": "inconclusive [inhibitor, partial curve]"},
      {"smiles": "CCOC(=O)N1CCN(S(=O)(=O)c2ccc(OCC)c3ccccc23)CC1", "Potency": "inconclusive [inhibitor, single point]"},
      {"smiles": "Cc1ccc(N2C(N)=C(C#N)C(c3cc(CN4CCOCC4)cs3)C3=C2CC(C)(C)CC3=O)cc1", "note": "(configuration not stated)", "Potency": "inconclusive [inhibitor, single point]"},
      {"smiles": "C#CCOCCOCCOCCNc1nc(N2CCOCC2)nc(N2CCN(C(=O)CCCCCCCCCCNC(=O)[C@H](CO)n3cc(CCCSC)nn3)CC2)n1", "Potency": "active: 0.522 µM"},
      {"smiles": "Cc1ccc(NC2=C(C(=O)c3ccccc3)N(C)S(=O)(=O)c3ccccc32)cc1", "Potency": "active: 9.28 µM"},
      {"smiles": "C/C(Cl)=C\\Cn1c(Nc2cccc(C)c2)nc2c1c(=O)n(C)c(=O)n2C", "Potency": "inconclusive [inhibitor, partial curve, poor fit]"},
      {"smiles": "CN(C)c1ccc2nc3ccc(=[N+](C)C)cc-3sc2c1", "Potency": "active: 0.0067 µM"},
      {"smiles": "COc1ccc(-c2cnnc(N/N=C/c3ccc(-c4ccc([N+](=O)[O-])cc4)o3)n2)cc1", "Potency": "active: 2.94 µM"},
      {"smiles": "Cc1ccc(C(=O)NCCC2=CCCCC2)cc1S(=O)(=O)N1CCCCC1", "Potency": "active: 11.7 µM"},
      {"smiles": "COc1ccccc1NC(=O)CNC(=O)c1ccc(Br)o1", "Potency": "inactive"},
      {"smiles": "Cc1c(C(=O)N2CC(C)OC(C)C2)oc2ccccc12", "note": "(configuration not stated)", "Potency": "inconclusive [inhibitor, single point]"},
      {"smiles": "COc1cc(/C=C/C(=O)N2CCC=CC2=O)cc(OC)c1OC", "Potency": "active: 9.28 µM"},
      {"smiles": "COc1ccc(-c2cc(=O)n(-c3nc4ccccc4[nH]3)[nH]2)cc1", "Potency": "inconclusive [inhibitor, single point]"},
      {"smiles": "NCC(c1ccccc1Cl)c1c[nH]c2ccccc12", "note": "(configuration not stated)", "Potency": "active: 9.28 µM"},
      {"smiles": "CCCCOC(=O)c1ccc(NC(C)=O)cc1", "Potency": "inactive"},
      {"smiles": "CCSCc1nnc(SCC(=O)Nc2cccc(C(C)=O)c2)n1C", "Potency": "inactive"},
      {"smiles": "COc1ccc2nc(NC(=O)C3CCN(S(=O)(=O)c4cccs4)CC3)sc2c1", "Potency": "active: 13.1 µM"},
      {"smiles": "CCCn1nc(NC(=O)C(C)(C)C)c2cc3cc(OC)ccc3nc21", "Potency": "inconclusive [inhibitor, partial curve]"},
      {"smiles": "O=C(NCCc1ccccc1Cl)c1ccc2nc3ccccc3c(=O)n2c1", "Potency": "inactive"},
      {"smiles": "Cc1cccc(OCC(=O)O/N=C(\\N)Cc2ccc(Cl)cc2)c1", "Potency": "inactive"},
      {"smiles": "COc1ccc(/C(C)=N/NC(=O)CNC(=O)CCc2ccccc2)c(OC)c1", "Potency": "inactive"},
      {"smiles": "Cc1nc(Cl)c(C(=O)NCc2ccccc2)c(C)c1Cl", "Potency": "inactive"},
      {"smiles": "COc1ccc(C(=O)Nc2ccccn2)cc1", "Potency": "inactive"},
      {"smiles": "CCCCn1c(N)c(N(CCOC)C(=O)c2cccc(S(=O)(=O)N3CCCCCC3)c2)c(=O)[nH]c1=O", "Potency": "inconclusive [inhibitor, single point]"},
      {"smiles": "Cc1cccn2c(=O)c3cc(C(=O)NC4CCCC4)n(C)c3nc12", "Potency": "inconclusive [inhibitor, single point]"},
      {"smiles": "Cc1cc(S(=O)(=O)N2CCCC2)ccc1OCC(=O)NC1CCCC1", "Potency": "inactive"},
      {"smiles": "O=C(CSc1nn(-c2ccc(Cl)cc2)c(=S)s1)NCC1CCCO1", "note": "(configuration not stated)", "Potency": "inconclusive [inhibitor, single point]"},
      {"smiles": "CON(C)S(=O)(=O)c1cccc(C(=O)Oc2ccc(N(C)S(=O)(=O)c3ccccc3)cc2)c1", "Potency": "inactive"},
      {"smiles": "Cc1cccc(NC(=O)/C=C/c2cccs2)n1", "Potency": "inactive"},
      {"smiles": "COc1ccc(C(=O)N(Cc2ccccc2)c2cccc(C)c2)cc1S(=O)(=O)N1CCOCC1", "Potency": "active: 10.4 µM"},
      {"smiles": "Cc1ccc(NCc2nnc(SCC(=O)c3ccccc3)n2Cc2ccco2)c(C)c1", "Potency": "inactive"},
      {"smiles": "FC(F)(F)c1cccc(Nc2nc(N3CCOCC3)nc(N3CCOCC3)n2)c1", "Potency": "inconclusive [inhibitor, single point]"},
      {"smiles": "O=C(NC(NC1CCS(=O)(=O)C1)C(Cl)(Cl)Cl)c1ccc(Br)cc1", "note": "(configuration not stated)", "Potency": "inactive"},
      {"smiles": "O=[N+]([O-])c1cccc2ccc(/C=C/c3ccc(F)cc3)nc12", "Potency": "inconclusive [inhibitor, single point]"},
      {"smiles": "O=C(NCCCn1ccnc1)c1cn(-c2ccccc2)nc1-c1ccc(F)cc1", "Potency": "inconclusive [inhibitor, single point]"},
      {"smiles": "OC(C#CCCN1CCCCC1)(c1ccccc1)c1ccccc1", "Potency": "inconclusive [inhibitor, single point]"},
      {"smiles": "CC(=O)C1=C(C)NC(SCC(=O)c2ccc(Cl)c(Cl)c2)=C(C#N)C1c1ccco1", "note": "(configuration not stated)", "Potency": "active: 1.17 µM"},
      {"smiles": "Cc1ccc(C)c(S(=O)(=O)N2CCN(C(=O)c3ccc4ccccc4n3)CC2)c1", "Potency": "inconclusive [inhibitor, partial curve, poor fit]"},
      {"smiles": "CCCC(C)C(=O)Nc1nc(C)c(-c2csc(Nc3cc(Cl)ccc3C)n2)s1", "note": "(configuration not stated)", "Potency": "inconclusive [inhibitor, single point]"},
      {"smiles": "Cc1c(Cl)cccc1NC(=S)N1CCCN(Cc2ccccc2F)C1", "Potency": "inconclusive [inhibitor, partial curve]"},
      {"smiles": "CCc1cc(CNC(=O)c2ccc(OC3CCN(C(C)=O)CC3)c(OC)c2)on1", "Potency": "inactive"},
      {"smiles": "CNc1nc(SC)n(C)c(=O)c1N=O", "Potency": "inactive"},
      {"smiles": "O=C(CCCCCN1C(=O)[C@@H]2Cc3ccccc3CN2C1=O)Nc1ccccc1Cl", "Potency": "inconclusive [inhibitor, single point]"},
      {"smiles": "O=C(c1ccc(F)cc1F)N1CCN(c2ccccn2)CC1", "Potency": "inactive"},
      {"smiles": "COc1ccccc1C(=O)NCC(=O)NCC1(N2CCCCC2)CCCCC1", "Potency": "inactive"},
      {"smiles": "Cc1cc(Br)c2c(c1)=C(c1sc(N3CCCCCC3)nc1O)C(=O)N=2", "Potency": "inconclusive [inhibitor, partial curve, poor fit]"},
      {"smiles": "COc1ccc(CCNC(=O)/C(C#N)=C2\\N=C(NC(=O)c3ccco3)c3ccccc32)cc1", "Potency": "inconclusive [inhibitor, full curve, poor fit]"},
      {"smiles": "CC[C@H](C)/C=C(C)/C=C/C(=O)Cc1cc(O)c(C)c(O)c1C=O", "Potency": "inconclusive [inhibitor, partial curve]"},
      {"smiles": "CCOC(=O)[C@H]1[C@H]2COc3ccc(C)cc3[C@@H]2N2C(=O)c3cc(OC)c(OC)cc3NC(=O)[C@@]12C", "Potency": "active: 11.7 µM"},
      {"smiles": "Cc1cc[n+](-c2[nH]c(=O)sc2/C=N/NC([S-])=Nc2ccccc2)cc1", "Potency": "inactive"},
      {"smiles": "COc1ccccc1N1CCN(C(=O)CCC(=O)Nc2nnc(C(C)C)s2)CC1", "Potency": "inactive"},
      {"smiles": "CCOC(=O)C1CCN(C(=O)CNC(=O)c2nn(-c3ccc(OC)cc3)c(=O)c3ccccc23)CC1", "Potency": "inconclusive [inhibitor, single point]"},
      {"smiles": "O=C(Nc1cccnc1)c1ccccc1O", "Potency": "inactive"},
      {"smiles": "O=C(CCN1CCN(C/C=C/c2ccccc2)CC1)Nc1ccc(Cl)cc1", "Potency": "inconclusive [inhibitor, single point]"},
      {"smiles": "CN(CC(=O)Nc1cccc(F)c1)C(=O)c1ccc(C(=O)c2ccccc2)cc1", "Potency": "inconclusive [inhibitor, partial curve, poor fit]"},
      {"smiles": "O=C(CCc1nnc(Cc2ccc(-c3ccccc3)cc2)o1)NCCc1cccnc1", "Potency": "inconclusive [inhibitor, partial curve]"}
    ]}
  ]
}
